Assay results as given in PubChem BioAssay AID588591 (National Center for Advancing Translational Sciences (NCATS), 2011).
Screen size: about 390,000 compounds; about 4,700 (1.2%) were called active. Inconclusive results, whose numbers are uncertain, are shown with a selection of clear calls. Calls follow the shape of the dose curve; as a rule, active = well fitted inhibition curve with a large enough effect; inconclusive = small, poorly fitted or top-dose-only effect, or another doubt; inactive = no such curve, though single readings can be large or run the other way. Where the call is inconclusive, the potency comes from a doubtful curve fit.

target: DNA polymerase eta (Homo sapiens) (UniProt Q9Y253); assay: qHTS for Inhibitors of Polymerase Eta; details: recombinant Pol eta, fluorescent DNA replication assay; series mostly up to 114 µM
In short: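 Fluorescent replication assay: 50 nM final substrate added after a 15 min room-temperature compound preincubation with 10 nM enzyme. Signal taken at 0 min and again at 10 min.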
Potency is read from the fitted curve at half-maximal effect; tags tell the direction and shape of the fitted curve.

Sequence of UniProt Q9Y253 (Q9Y253 whole entry, looked up): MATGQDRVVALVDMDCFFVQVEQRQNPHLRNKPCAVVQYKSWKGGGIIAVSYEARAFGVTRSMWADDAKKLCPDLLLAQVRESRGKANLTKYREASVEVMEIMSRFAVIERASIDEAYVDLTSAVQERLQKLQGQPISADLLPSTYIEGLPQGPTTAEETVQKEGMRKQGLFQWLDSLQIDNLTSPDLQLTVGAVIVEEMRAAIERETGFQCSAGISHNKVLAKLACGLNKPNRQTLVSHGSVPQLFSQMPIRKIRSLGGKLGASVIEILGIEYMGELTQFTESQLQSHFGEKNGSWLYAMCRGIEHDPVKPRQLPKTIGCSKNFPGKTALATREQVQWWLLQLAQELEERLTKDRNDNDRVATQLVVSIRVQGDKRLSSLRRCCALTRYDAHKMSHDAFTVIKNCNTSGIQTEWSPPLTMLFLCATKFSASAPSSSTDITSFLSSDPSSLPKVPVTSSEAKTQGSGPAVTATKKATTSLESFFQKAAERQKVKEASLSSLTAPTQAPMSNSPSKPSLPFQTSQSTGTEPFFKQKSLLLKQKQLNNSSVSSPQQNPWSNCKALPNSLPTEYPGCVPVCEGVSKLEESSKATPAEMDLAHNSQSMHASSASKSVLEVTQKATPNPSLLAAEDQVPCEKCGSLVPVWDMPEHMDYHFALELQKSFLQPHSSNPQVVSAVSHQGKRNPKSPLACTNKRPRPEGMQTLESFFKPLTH

| SMILES | Potency |
| --- | --- |
| N[C@H](C(=O)O)[C@H]1C[C@@H]1C(=O)O | inactive |
| O=C(N/N=C/c1ccc([N+](=O)[O-])o1)C1CC1 | active: 39.8 µM |
| CN1CCc2[nH]c3ccc(C(=O)NN)cc3c2C1 | inactive |
| COc1ccc(-c2oc3cc(OC)c(O)c(OC)c3c(=O)c2OC)cc1O | inconclusive: 44.7 µM [inhibitor, partial curve, poor fit] |
| CC(=O)c1sc(N/N=C/c2cccc([N+](=O)[O-])c2)nc1C | inconclusive: 39.8 µM [inhibitor, partial curve, poor fit] |
| O=C1/C(=C\c2ccco2)SC(=S)N1Cc1ccccc1 | inconclusive: 35.5 µM [inhibitor, single point] |
| Cc1ccccc1CNC(=O)CCCn1c(=O)c2cccn2c2ccccc21 | inactive |
| Cc1ccc(S(=O)(=O)/N=C2/NC(=O)/C(=C\c3cc(Br)cc(Br)c3O)S2)cc1 | active: 22.4 µM |
| O=C1Nc2cc(C(=O)NCCCN3CCCC3)ccc2S/C1=C\c1ccccc1 | inconclusive: 89.1 µM [inhibitor, partial curve, poor fit] |
| CC(CNC(=O)c1ccc(CSc2nc3ccncc3n2Cc2cccc(F)c2)cc1)c1ccccc1 (centres undefined) | inactive |
| COc1cccc(/C=N/NC(=O)c2ccc3nc[nH]c3c2)c1O | inconclusive: 44.7 µM [inhibitor, partial curve, poor fit] |
| COc1ccccc1-c1ccc([C@@H]2C[C@H]3[C@H](CON3C)CN2C(=O)c2ccc(-c3ccccc3)cc2)cc1 | inconclusive: 79.4 µM [inhibitor, partial curve, poor fit] |
| COc1cccc(Nc2nc(N)c([N+](=O)[O-])c(NCc3ccco3)n2)c1 | inconclusive: 89.1 µM [inhibitor, partial curve, poor fit] |
| CCCCCNC(=O)c1ccc2c(=O)[nH]c3c(C(=O)NCC4CCCO4)sc(=S)n3c2c1 (centres undefined) | active: 25.1 µM |
| Cc1cccn2c(=O)c3cc(C#N)c(=NC(=O)c4ccncc4)n(CCCOC(C)C)c3nc12 | inconclusive: 39.8 µM [inhibitor, single point] |
| CCCCNC(=O)c1ccc(CS(=O)(=O)c2ccc(C)cc2)o1 | inconclusive: 56.2 µM [inhibitor, partial curve, poor fit] |
| CCn1c(SCC(=O)Nc2sc3c(c2C#N)CCCC3)nnc1-c1ccco1 | inactive |
| Cc1ccc(CNC(=O)Cn2c(=O)cc(-c3ccccc3)c3c(C)nn(C)c32)cc1 | inactive |
| COc1cc(C2CC(=O)Oc3c(C(CCN4CCCC(C)C4)c4ccc(N(C)C)cc4)c(OC)cc(OC)c32)cc(OC)c1OC (centres undefined) | inconclusive: 89.1 µM [inhibitor, partial curve, poor fit] |
| O=C(COC(=O)c1ccc(Cl)c(S(=O)(=O)N2CCCCC2)c1)NCc1ccco1 | inconclusive: 39.8 µM [inhibitor, partial curve, poor fit] |
| O=C1N/C(=N/S(=O)(=O)c2ccccc2)S/C1=C/c1cccnc1 | inconclusive: 44.7 µM [inhibitor, partial curve] |
| CCOC(=O)c1c(NC(=O)CSc2cn(CCNC(=O)c3ccccc3OC)c3ccccc23)sc2c1CCCC2 | inconclusive: 89.1 µM [inhibitor, partial curve, poor fit] |

| SMILES | Potency |
| --- | --- |
| O=C(O)c1cccc(CN2C(=O)S/C(=C/c3ccccc3[N+](=O)[O-])C2=O)c1 | active: 79.4 µM |
| Cc1cccc(Nc2nnc(SCC(=O)c3c(N)n(C4CC4)c(=O)[nH]c3=O)s2)c1 | inactive |
| CC(C)(C)c1ccc(OCC(=O)NCc2ccco2)c(Br)c1 | active: 44.7 µM |
| COc1ccc(S(=O)(=O)Nc2ccc3c(c2)C(=O)N([C@H](C)CO)C[C@H](C)[C@@H](CN(C)C(=O)Nc2ccc(C(F)(F)F)cc2)OCCCC[C@H](C)O3)cc1 | inconclusive: 100 µM [inhibitor, partial curve, poor fit] |
| Cc1cc(C)cc(C(=O)Oc2coc(CSc3nnc(NC(=O)C4CC4)s3)cc2=O)c1 | inconclusive: 20 µM [inhibitor, single point] |
| Cc1ccc(N=Nc2c(N)nn3c(N)c(C#N)c(C)nc23)cc1 | inconclusive: 56.2 µM [inhibitor, partial curve, poor fit] |
| Cc1ccc(-n2nc3ccc(NC(=O)C(C)C)cc3n2)cc1 | inactive |
| CN(Cc1ccccc1)C(=O)COC(=O)/C=C/c1ccco1 | inconclusive: 89.1 µM [inhibitor, partial curve, poor fit] |
| O=C(Nc1ccc2oc(-c3ccncc3)nc2c1)c1c(F)c(F)c(F)c(F)c1F | inconclusive: 17.8 µM [inhibitor, partial curve] |
| COc1ccc2nc(C)cc(N/N=C/c3ccccc3)c2c1 | inconclusive: 10 µM [inhibitor, full curve, poor fit] |
| CSc1ccc(/C=N/Nc2cccc(C(=O)O)c2)cc1 | active: 1.12 µM |
| Cc1ccc(NC(=O)CN(C)C(=O)COc2ccc(C(=O)c3ccc(F)cc3)cc2)cc1 | inconclusive: 89.1 µM [inhibitor, partial curve, poor fit] |
| COc1ccc2[nH]c3c(=O)n(Cc4ccc(C(=O)NCC5CCCO5)cc4)c(=S)[nH]c3c2c1 (centres undefined) | active: 17.8 µM |
| CCCn1c(N)c(C(=O)CSc2nnc(-c3cccnc3)n2-c2ccc(C)cc2C)c(=O)[nH]c1=O | inconclusive: 8.91 µM [inhibitor, partial curve, poor fit] |
| Cc1ccc(-c2nn(CC(=O)NC(C)c3ccccc3)c(=O)c3ccccc23)cc1 (centres undefined) | inconclusive: 31.6 µM [inhibitor, single point] |
| O=C(CCc1nc2sc3c(c2c(=O)[nH]1)CCCC3)NCC(=O)Nc1ccccc1Br | active: 8.91 µM |
| CCOc1ccc(CCNC(=O)Cn2nc(C)c3c(C)n(-c4ccccc4)nc3c2=O)cc1 | inconclusive: 79.4 µM [inhibitor, single point] |
| N#Cc1cc([N+](=O)[O-])ccc1NC(=O)COC(=O)c1cnccn1 | inconclusive: 39.8 µM [inhibitor, partial curve, poor fit] |
| Cc1ccc2nc(SCC(=O)Nc3cccnc3Cl)[nH]c2c1 | inconclusive: 89.1 µM [inhibitor, partial curve, poor fit] |
| COc1cc(CCN2C(=O)c3cccc4cccc(c34)C2=O)c(S(=O)(=O)NCCO)cc1OC | inconclusive: 17.8 µM [inhibitor, partial curve, poor fit] |
| CNc1c(C(=O)O)ccc2c1C(=O)c1ccccc1C2=O | inconclusive: 56.2 µM [inhibitor, partial curve, poor fit] |
| CCC(=S)/C=C1\Sc2ccccc2N1CCCS(=O)(=O)O | inconclusive: 89.1 µM [inhibitor, single point] |

| SMILES | Potency |
| --- | --- |
| COc1cc2c(cc1OC)C(=O)C(Br)CC2 (centres undefined) | active: 20 µM |
| CCC(CC)C(=O)Nc1ccc2nc(SCC(=O)N3CCOCC3)sc2c1 | inactive |
| COc1ccc(/C=N/NC(=O)c2ccc(CN3C(=O)c4cccc5cccc3c45)cc2)cc1O | inconclusive: 25.1 µM [inhibitor, partial curve, poor fit] |
| CCC(C(=O)Nc1cc(-c2cn3cccnc3n2)ccc1C)c1ccccc1 (centres undefined) | inactive |
| CC(C)C(CC(=O)NCc1ccco1)c1ccco1 (centres undefined) | active: 17.8 µM |
| COc1ccc(C2=NS(=O)(=O)N(C)C(C(=O)N3CCCCC3)=C2)cc1 | inconclusive: 100 µM [inhibitor, partial curve, poor fit] |
| Cc1ccc(C)c(-c2cc(C(=O)Nc3nccs3)c3ccccc3n2)c1 | inactive |
| O=C(CSc1nc2ccccc2nc1Cc1ccc(Cl)cc1)N1CCCCC1 | inactive |
| Cc1ccccc1N/N=C/c1ccc(C#N)cc1 | inactive |
| Cc1cc(C)n(Cc2ccc(C(=O)NCc3ccco3)o2)n1 | inconclusive: 22.4 µM [inhibitor, partial curve] |
| N#CC(C(=O)NCc1ccco1)c1nc2ccccc2nc1N1CCOCC1 (centres undefined) | inconclusive: 25.1 µM [inhibitor, single point] |
| COC(=O)c1c(NC(=O)CN2CCN(c3ncccn3)CC2)sc(C(N)=O)c1C | inconclusive: 44.7 µM [inhibitor, partial curve] |
| Cc1cc([N+](=O)[O-])ccc1N=Nc1c(N)[nH]n(-c2ccccc2)c1=O | inconclusive: 79.4 µM [inhibitor, partial curve, poor fit] |
| Cc1ccccc1N(C(=O)CCCC(=O)Nc1ccccn1)C(C(=O)NC1CCCC1)c1ccc(O)cc1 (centres undefined) | inconclusive: 89.1 µM [inhibitor, partial curve, poor fit] |
| COc1ccc(OC)c(NC(=O)COC(=O)/C=C/c2ccco2)c1 | inconclusive: 35.5 µM [inhibitor, partial curve, poor fit] |
| O=C(/C=C/c1ccco1)NCc1ccco1 | inconclusive: 56.2 µM [inhibitor, partial curve, poor fit] |
| CCOC(=O)c1c(C)oc2ccc(N(C(=O)c3ccncc3)S(=O)(=O)c3ccc(F)cc3C)cc12 | inconclusive: 63.1 µM [inhibitor, partial curve, poor fit] |
| CC(C)SCC(=O)Nc1ncc2c(n1)-c1ccccc1CC2 | inconclusive: 44.7 µM [inhibitor, partial curve] |
| Cc1ccc(S(=O)(=O)N2C(=O)CCC2C(=O)O/N=C(\N)c2ccccc2)cc1 (centres undefined) | inconclusive: 89.1 µM [inhibitor, partial curve, poor fit] |
| OCCCNc1nccc(-c2cc(Nc3cccc(Cl)c3)ncn2)n1 | inconclusive: 56.2 µM [inhibitor, partial curve, poor fit] |
